Reference: the supplement of paper PMC8728848
Some of the results follow.

Experiments:
Experiment in all cases: glycan array binding signal (z-score within array); higher = stronger binding
Settings in all cases: glycan notation: IUPAC condensed, linker removed
[1] = target: Neu5Ac(a2-6)Gal(b1-3)GlcNAc(b1-3)[Gal(b1-4)GlcNAc(b1-6)]Gal(b1-4)Glc
Outline: (§1)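 Negative Z-scores can be read as non-binding. The Z-score is calculated within each array and then averaged across arrays of one protein sequence at different concentrations or buffers and across linkers. Arrays, 3228 in all, were curated from the Consortium for Functional Glycomics database and kept only where the protein sequence was available.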

Neu5Ac(a2-6)Gal(b1-4)Glc = target: Neu5Ac(a2-6)Gal(b1-4)Glc
Outline: as §1

[2] = target: Neu5Ac(a2-6)Gal(b1-4)GlcNAc
Outline: as §1

[3] = target: Neu5Ac(a2-6)Gal(b1-4)GlcNAc(b1-2)Man
Outline: as §1

[4] = target: Neu5Ac(a2-6)Gal(b1-4)GlcNAc(b1-2)Man(a1-3)Man(b1-4)GlcNAc(b1-4)GlcNAc
Outline: as §1

[5] = target: Neu5Ac(a2-6)Gal(b1-4)GlcNAc(b1-2)Man(a1-3)[Gal(b1-4)GlcNAc(b1-2)Man(a1-6)]Man(b1-4)GlcNAc(b1-4)GlcNAc
Outline: as §1

[6] = target: Neu5Ac(a2-6)Gal(b1-4)GlcNAc(b1-2)Man(a1-3)[GlcNAc(b1-2)Man(a1-6)]Man(b1-4)GlcNAc(b1-4)GlcNAc
Outline: as §1

[7] = target: Neu5Ac(a2-6)Gal(b1-4)GlcNAc(b1-2)Man(a1-3)[GlcNAc(b1-4)][Neu5Ac(a2-6)Gal(b1-4)GlcNAc(b1-2)Man(a1-6)]Man(b1-4)GlcNAc(b1-4)GlcNAc
Outline: as §1

[8] = target: Neu5Ac(a2-6)Gal(b1-4)GlcNAc(b1-2)Man(a1-3)[Man(a1-6)]Man(b1-4)GlcNAc(b1-4)GlcNAc
Outline: as §1

[9] = target: Neu5Ac(a2-6)Gal(b1-4)GlcNAc(b1-2)Man(a1-3)[Neu5Ac(a2-3)Gal(b1-4)GlcNAc(b1-2)Man(a1-6)]Man(b1-4)GlcNAc(b1-4)GlcNAc
Outline: as §1

[10] = target: Neu5Ac(a2-6)Gal(b1-4)GlcNAc(b1-2)Man(a1-3)[Neu5Ac(a2-6)Gal(b1-4)GlcNAc(b1-2)Man(a1-6)]Man(b1-4)GlcNAc(b1-4)GlcNAc
Outline: as §1

[11] = target: Neu5Ac(a2-6)Gal(b1-4)GlcNAc(b1-2)Man(a1-3)[Neu5Ac(a2-6)Gal(b1-4)GlcNAc(b1-2)Man(a1-6)]Man(b1-4)GlcNAc(b1-4)[Fuc(a1-6)]GlcNAc
Outline: as §1

[12] = target: Neu5Ac(a2-6)Gal(b1-4)GlcNAc(b1-2)Man(a1-6)Man(b1-4)GlcNAc(b1-4)GlcNAc
Outline: as §1

[13] = target: Neu5Ac(a2-6)Gal(b1-4)GlcNAc(b1-2)Man(a1-6)[Gal(b1-4)GlcNAc(b1-2)Man(a1-3)]Man(b1-4)GlcNAc(b1-4)GlcNAc
Outline: as §1

[14] = target: Neu5Ac(a2-6)Gal(b1-4)GlcNAc(b1-2)Man(a1-6)[GlcNAc(b1-2)Man(a1-3)]Man(b1-4)GlcNAc(b1-4)GlcNAc
Outline: as §1

[15] = target: Neu5Ac(a2-6)Gal(b1-4)GlcNAc(b1-2)Man(a1-6)[Man(a1-3)]Man(b1-4)GlcNAc(b1-4)GlcNAc
Outline: as §1

[16] = target: Neu5Ac(a2-6)Gal(b1-4)GlcNAc(b1-2)[Neu5Ac(a2-6)Gal(b1-4)GlcNAc(b1-4)]Man(a1-3)[GlcNAc(b1-4)][Neu5Ac(a2-6)Gal(b1-4)GlcNAc(b1-2)[Neu5Ac(a2-6)Gal(b1-4)GlcNAc(b1-6)]Man(a1-6)]Man(b1-4)GlcNAc(b1-4)GlcNAc
Outline: as §1

[17] = target: Neu5Ac(a2-6)Gal(b1-4)GlcNAc(b1-2)[Neu5Ac(a2-6)Gal(b1-4)GlcNAc(b1-4)]Man(a1-3)[GlcNAc(b1-4)][Neu5Ac(a2-6)Gal(b1-4)GlcNAc(b1-4)Man(a1-6)]Man(b1-4)GlcNAc(b1-4)GlcNAc
Outline: as §1

[18] = target: Neu5Ac(a2-6)Gal(b1-4)GlcNAc(b1-2)[Neu5Ac(a2-6)Gal(b1-4)GlcNAc(b1-6)]Man(a1-6)[Neu5Ac(a2-6)Gal(b1-4)GlcNAc(b1-2)Man(a1-3)][GlcNAc(b1-4)]Man(b1-4)GlcNAc(b1-4)GlcNAc
Outline: as §1

[19] = target: Neu5Ac(a2-6)Gal(b1-4)GlcNAc(b1-3)Gal(b1-3)GlcNAc
Outline: as §1

[20] = target: Neu5Ac(a2-6)Gal(b1-4)GlcNAc(b1-3)Gal(b1-4)GlcNAc
Outline: as §1

[21] = target: Neu5Ac(a2-6)Gal(b1-4)GlcNAc(b1-3)Gal(b1-4)GlcNAc(b1-2)Man(a1-3)[Neu5Ac(a2-6)Gal(b1-4)GlcNAc(b1-3)Gal(b1-4)GlcNAc(b1-2)Man(a1-6)]GalNAc
Outline: as §1

[22] = target: Neu5Ac(a2-6)Gal(b1-4)GlcNAc(b1-3)Gal(b1-4)GlcNAc(b1-3)Gal(b1-4)GlcNAc
Outline: as §1

[23] = target: Neu5Ac(a2-6)Gal(b1-4)GlcNAc(b1-3)Gal(b1-4)GlcNAc(b1-3)Gal(b1-4)GlcNAc(b1-2)Man(a1-3)[Neu5Ac(a2-6)Gal(b1-4)GlcNAc(b1-3)Gal(b1-4)GlcNAc(b1-3)Gal(b1-4)GlcNAc(b1-2)Man(a1-6)]GalNAc
Outline: as §1

[24] = target: Neu5Ac(a2-6)Gal(b1-4)GlcNAc(b1-3)Gal(b1-4)GlcNAc(b1-3)GalNAc
Outline: as §1

[25] = target: Neu5Ac(a2-6)Gal(b1-4)GlcNAc(b1-3)Gal(b1-4)GlcNAc(b1-3)[Neu5Ac(a2-6)Gal(b1-4)GlcNAc(b1-3)Gal(b1-4)GlcNAc(b1-6)]GalNAc
Outline: as §1

[26] = target: Neu5Ac(a2-6)Gal(b1-4)GlcNAc(b1-3)Gal(b1-4)GlcNAc(b1-6)[Gal(b1-3)]GalNAc
Outline: as §1

[27] = target: Neu5Ac(a2-6)Gal(b1-4)GlcNAc(b1-3)Gal(b1-4)[Fuc(a1-3)]GlcNAc(b1-3)Gal(b1-4)[Fuc(a1-3)]GlcNAc
Outline: as §1

[28] = target: Neu5Ac(a2-6)Gal(b1-4)GlcNAc(b1-3)GalNAc
Outline: as §1

[29] = target: Neu5Ac(a2-6)Gal(b1-4)GlcNAc(b1-3)[Neu5Ac(a2-6)Gal(b1-4)GlcNAc(b1-6)]GalNAc
Outline: as §1

[30] = target: Neu5Ac(a2-6)Gal(b1-4)GlcNAc(b1-6)GalNAc
Outline: as §1

[31] = target: Neu5Ac(a2-6)Gal(b1-4)GlcNAc(b1-6)[Gal(b1-3)GlcNAc(b1-3)]Gal(b1-4)Glc
Outline: as §1

[32] = target: Neu5Ac(a2-6)Gal(b1-4)GlcNAc(b1-6)[Gal(b1-3)]GalNAc
Outline: as §1

[33] = target: Neu5Ac(a2-6)Gal(b1-4)GlcNAc6S
Outline: as §1

Neu5Ac(a2-6)GalNAc = target: Neu5Ac(a2-6)GalNAc
Outline: as §1

[34] = target: Neu5Ac(a2-6)GalNAc(b1-4)GlcNAc
Outline: as §1

[35] = target: Neu5Ac(a2-6)GalNAc(b1-4)GlcNAc6S
Outline: as §1

[36] = target: Neu5Ac(a2-6)GlcNAc(b1-4)GlcNAc
Outline: as §1

B1: Cohesin-hDECTIN-1 (Homo sapiens) (protein)
chain: LDITSHHHHHHDDLDAVRIKVDTVNAKPGDTVRIPVRFSGIPSKGIANCDFVYSYDPNVLEIIEIEPGDIIVDPNPDKSFDTAVYPDRKIIVFLFAEDSGTGAYAITKDGVFATIVAKVKEGAPNGLSVIKFVEVGGFANNDLVEQKTQFFDGGVNVGDTTEPATPTTPVTTPTTTDDLDAASSSPCPPNWIIYEKSCYLFSMSLNSWDGSKRQCWQLGSNLLKIDSSNELGFIVKQVSSQPDNSFWIGLSRPQTEVPWLWEDGSTFSSNLFQIRTTATQENPSPNCVWIHVSVIYDQLCSVPSYSICEKKFM
- glycan array binding signal (z-score) [1]: -0.564
- glycan array binding signal (z-score) (Neu5Ac(a2-6)Gal(b1-4)Glc): -0.438
- glycan array binding signal (z-score) [2]: -0.268
- glycan array binding signal (z-score) [3]: -0.293
- glycan array binding signal (z-score) [4]: -0.577
- glycan array binding signal (z-score) [5]: -0.4
- glycan array binding signal (z-score) [6]: -0.629
- glycan array binding signal (z-score) [7]: -0.427
- glycan array binding signal (z-score) [8]: -0.526
- glycan array binding signal (z-score) [9]: -0.147
- glycan array binding signal (z-score) [10]: -0.476
- glycan array binding signal (z-score) [11]: 0.007
- glycan array binding signal (z-score) [12]: -0.639
- glycan array binding signal (z-score) [13]: -0.561
- glycan array binding signal (z-score) [14]: -0.488
- glycan array binding signal (z-score) [15]: -0.648
- glycan array binding signal (z-score) [16]: 1.06
- glycan array binding signal (z-score) [17]: 0.743
- glycan array binding signal (z-score) [18]: -0.617
- glycan array binding signal (z-score) [19]: -0.26
- glycan array binding signal (z-score) [20]: -0.163
- glycan array binding signal (z-score) [21]: -0.284
- glycan array binding signal (z-score) [22]: -0.45
- glycan array binding signal (z-score) [23]: 0.383
- glycan array binding signal (z-score) [24]: -0.203
- glycan array binding signal (z-score) [25]: -0.459
- glycan array binding signal (z-score) [26]: -0.582
- glycan array binding signal (z-score) [27]: -0.536
- glycan array binding signal (z-score) [28]: -0.215
- glycan array binding signal (z-score) [29]: -0.643
- glycan array binding signal (z-score) [30]: -0.507
- glycan array binding signal (z-score) [31]: -0.275
- glycan array binding signal (z-score) [32]: -0.417
- glycan array binding signal (z-score) [33]: -0.118
- glycan array binding signal (z-score) (Neu5Ac(a2-6)GalNAc): 2.14
- glycan array binding signal (z-score) [34]: 1.36
- glycan array binding signal (z-score) [35]: 0.317
- glycan array binding signal (z-score) [36]: -0.518
